Measurements reported in article PMC4242493.
Some of the results follow. The list includes weakly bound sequences.

molecular target: MaxL homodimer (UniProt P61244); test: universal protein-binding microarray (PBM); conditions: PBS-based mixture, 10 nM His-tagged protein dimer, 2% milk, 200 ng/uL BSA, 50 ng/uL salmon testes DNA, 0.02% TX-100; detection with Alexa 488 anti-His …; high values mean tight binding; most listed sequences are background and not binding sites; double strand, one strand shown
Sequence of UniProt P61244 (P61244 whole entry): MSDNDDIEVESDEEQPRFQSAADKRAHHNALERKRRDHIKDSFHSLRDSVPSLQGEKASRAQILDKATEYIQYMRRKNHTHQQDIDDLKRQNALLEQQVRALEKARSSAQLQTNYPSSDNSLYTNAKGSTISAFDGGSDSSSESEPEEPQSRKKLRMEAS

Sequence | binding signal (normalized occupancy)
ACTGATGA | 0.0724
ATCCGCCG | 0.0699
GACGAGGA | 0.0731
GGAGGCCA | 0.0712
CGTCGCAG | 0.0728
AGTTGTTC | 0.073
AACAAAAT | 0.0826
GAAGTCCC | 0.0754
CTAGAGCA | 0.0702
GTGAACCA | 0.0773
ACAGGGGT | 0.0756
CTTTCAGA | 0.0772
AGTGAAAA | 0.0707
CACACAGC | 0.0788
GATGGACA | 0.0742
CACAAAGC | 0.0707
GAGTATGC | 0.0816
ATCCACCC | 0.0795
GAGCTAAA | 0.0759
CAACTTAG | 0.0721
AAGCAGTA | 0.0725
CCGCTTGC | 0.0705
ACATGTTA | 0.0993
CGGGTCCC | 0.0721
AAGCTACT | 0.0668

Sequence | binding signal (normalized occupancy)
CACTGGGG | 0.075
CATAACAA | 0.0809
AGGAGTTG | 0.0735
GAACCCAC | 0.0754
GAGCCGAC | 0.0664
AACCGAGC | 0.0653
AGGAACTC | 0.0745
GCCGCTCA | 0.068
CTTCGGAC | 0.0699
AAACGGTC | 0.0768
AGATACTC | 0.0831
ATAGGGGA | 0.0849
AGTCATAT | 0.0903
AATTTTAC | 0.072
GCTGCCAC | 0.0765
AATTTGAT | 0.071
ATACCCAA | 0.0764
AGAGAGGG | 0.0758
AGGGTGAT | 0.0764
TGTACAAA | 0.0802
CATGCTCG | 0.106
TAATACAA | 0.0758
CCCACAAA | 0.075
TCATTTAA | 0.0823
TACATATA | 0.0865

Sequence | binding signal (normalized occupancy)
AAATCAAG | 0.0746
CTCAAAAC | 0.0752
GGCCACCC | 0.0757
ATACGTCG | 0.0848
CATTAGAC | 0.0749
TGAATAAA | 0.0814
GGCAGAAA | 0.0684
ATGGATCC | 0.0823
AGAGAGGA | 0.0724
CAGACTGA | 0.0693
TCGAGTAA | 0.0728
CCGAGACG | 0.0692
CAGGAATC | 0.0782
AAAGGACG | 0.0686
GCAGGTTA | 0.0708
ACATTTAC | 0.0798
GCCGAACA | 0.0704
AACCCTGC | 0.0705
AGCGATTG | 0.0734
ATGTCTTA | 0.0882
AGACCTTA | 0.0772
AGGGGGCC | 0.0693
CGACGAAG | 0.0714
AATGACTC | 0.0783
AGACGCTA | 0.0657

Sequence | binding signal (normalized occupancy)
AAGCGCCC | 0.0659
CAAAGTCC | 0.0657
CATGCAGC | 0.0946
GCTAGGAA | 0.0727
CAAATGAC | 0.0825
AAAGCCGC | 0.0669
GTCGCTGA | 0.0755
AAAACTTT | 0.0676
GTTTATGA | 0.0782
GAAGGGGC | 0.0757
AGAATTTC | 0.0749
TAGAGCAA | 0.0708
ATCGGCTC | 0.0723
AGATCCAA | 0.0706
GGAAGTTA | 0.0752
GGCAACCA | 0.0697
AAGGTCGC | 0.074
AGTAAATG | 0.0734
CGTCGGTA | 0.0699
AAGATACG | 0.072
CCCAGTGA | 0.0723
AACTCGGT | 0.0731
AACTTATT | 0.0797
AATTCCGA | 0.0729
AAGGTGAG | 0.0742

Sequence | binding signal (normalized occupancy)
CAGGCTAG | 0.0704
GCTTGGGA | 0.0733
CGATGTGC | 0.0807
CGGGCAAA | 0.0682
GGGCAATA | 0.081
ATACAAAT | 0.0878
ATTGAACA | 0.0789
CCGCAGCC | 0.0714
TCGGCTCA | 0.0716
CGACAGAG | 0.0711
ATAGCATA | 0.0872
CAGACTAG | 0.0708
GAGAAAGA | 0.0693
GCCACTTA | 0.0728
AGTAGGTC | 0.0721
ATGAGTCG | 0.0808
ATAGGTCA | 0.0845
ACTTTCTG | 0.0733
CTTGCAGA | 0.0701
CCCCTGGC | 0.0675
CCGGAGCC | 0.0668
CGTAAACG | 0.0704
CAGGATAA | 0.0834
TCCCGGGA | 0.0631
AAACTTCA | 0.0765

Sequence | binding signal (normalized occupancy)
GAAATTAC | 0.0763
AGGTCTAT | 0.08
ACCTCGTA | 0.0827
CCCCGTGC | 0.0948
CTCTCCCC | 0.0757
CTGGGTCC | 0.0738
GACTACCA | 0.0763
AATCTCAT | 0.0816
CACGCCTG | 0.0966
TCCTCTAA | 0.075
CCGTAGAG | 0.0713
TAACTTAA | 0.0727
TTAGGCAA | 0.0725
AGCCACGA | 0.0883
CTTCCTTC | 0.0733
AATGTGCG | 0.0957
AAGTACAA | 0.078
CTCGGGAC | 0.0711
GCTCCCCC | 0.0663
CATACTCC | 0.085
AAACCATA | 0.0792
CAGACTGG | 0.0699
GTACTGGA | 0.0747
ACTACTAC | 0.075
AATGCGAT | 0.0782

Sequence | binding signal (normalized occupancy)
CTTACAGC | 0.0716
AAAGTTCG | 0.0662
ATTCTAGA | 0.0727
ATGTAGGA | 0.0768
AACGCCTT | 0.0705
AGATACAA | 0.0805
AGGGACAC | 0.0687
AGGAATTG | 0.0797
AATTCCAA | 0.0755
CATGTCCA | 0.0873
GCAAATCC | 0.0711
TGCTAAAA | 0.0817
AGCTCTCC | 0.0744
AGGGCCCA | 0.0684
TAATTCCA | 0.0791
CTCGGTTA | 0.0699
CCTACGGA | 0.0694
GTGCGATA | 0.0827
CAACAGTC | 0.0718
CCTAAGTC | 0.0703
GCTATAAA | 0.0747
AAGTTCCC | 0.0683
TCCTTAAA | 0.0679
TGCAGACA | 0.0728
ATCTAGCG | 0.0744

Sequence | binding signal (normalized occupancy)
CCGTAGCC | 0.0683
CTAAATAG | 0.0735
CCCCCGTC | 0.0826
AACCATAA | 0.081
AGTACGAA | 0.0712
ATGTGGGA | 0.0914
AGCGTAGA | 0.0698
CTATTAAC | 0.0779
GAGGCCCC | 0.0733
CACCAGGA | 0.0715
ACCTGGCG | 0.0775
AACCAGAC | 0.0734
TAGAGATA | 0.0742
CCACTTGC | 0.0746
CAAATCCC | 0.0732
CAGTTCCA | 0.0804
GGCATTCA | 0.0765
ACCAAGAT | 0.0752
CCTGCGAG | 0.0694
GGTTGTGA | 0.0775
CTAATTCA | 0.0768
AAGATAAA | 0.0789
AGGCTCCA | 0.0715
AATAAAGG | 0.075
AAAATTAT | 0.0765

Sequence | binding signal (normalized occupancy)
GTGCGCTA | 0.0817
ACTAACTC | 0.076
AAAAAGAA | 0.0757
ATTGCAAT | 0.0742
AAAAGGTA | 0.074
ACTGGGAG | 0.0717
ATTATCCG | 0.077
AAAGACTT | 0.0717
CGTAATCC | 0.0766
GGCATGCA | 0.109
CCCGGTAA | 0.0715
CGCGAAAG | 0.0692
GATCAGAC | 0.0753
CAAAAACC | 0.0703
ATTAGAAA | 0.0751
GACAGGAC | 0.0719
CCTGGGCC | 0.0723
AGCTAGCT | 0.0712
AGTCTATC | 0.0774
